Measured values as given in the supplement of paper PMC4967469.
The IC50 comes from the fitted curve, where viability falls to half of the control; where the fit passes the top or lowest dose, that dose stands as a limit. AUC, from the same fit, is the share of area under the viability curve across the 256-fold dose range; it is 1 without any effect and falls as sensitivity rises. Any top dose called inferred comes from the curve model; the source does not state it. For some of these results: An entry number marks a drug with two screens in the source, which often give different values.

Key:
Experiment in all cases: Viability of human cancer cell lines after 72 h of drug (GDSC screen)
Olaparib = compound: O=C(c1cc(Cc2n[nH]c(=O)c3ccccc23)ccc1F)N1CCN(C(=O)C2CC2)CC1 [Olaparib]
Protocol: (§1)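 Human cancer cell lines in 384-well plates, medium with 10% serum, drug for 72 h over a 256-fold dose range (nine 2-fold or five 4-fold steps up to the top dose). Adherent lines were fixed and stained with the nucleic acid dye Syto60, suspension lines read with resazurin; signal relative to control wells, capped at 0 and 100%. One two-parameter sigmoid per drug and line, fitted in a mixed model over all curves with the slope shared within a line.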

SB-525334 = compound: Cc1cccc(-c2[nH]c(C(C)(C)C)nc2-c2ccc3nccnc3c2)n1 [SB-525334]; settings: top dose 20 µM; top dose inferred
Protocol: as §1

VX-702 = compound: NC(=O)c1ccc(N(C(N)=O)c2c(F)cccc2F)nc1-c1ccc(F)cc1F [VX-702]; settings: top dose 2 µM; top dose inferred
Protocol: as §1

A-770041 = compound: COc1cc(-c2nn([C@H]3CC[C@H](N4CCN(C(C)=O)CC4)CC3)c3ncnc(N)c23)ccc1NC(=O)c1cc2ccccc2n1C [A-770041]; settings: top dose 5.12 µM; top dose inferred
Protocol: as §1

Wee1 inhibitor 681640 = compound: O=C1NC(=O)c2c1c(-c1ccccc1Cl)cc1[nH]c3ccc(O)cc3c21 [Wee1 inhibitor 681640]; settings: top dose 2 µM; top dose inferred
Protocol: as §1

BIRB 0796 = compound: Cc1ccc(-n2nc(C(C)(C)C)cc2NC(=O)Nc2ccc(OCCN3CCOCC3)c3ccccc23)cc1 [BIRB 0796]; settings: top dose 10 µM; top dose inferred
Protocol: as §1

XMD8-85 = compound: COc1cc(N2CCN(C)CC2)ccc1Nc1ncc2c(n1)N(C)c1ccccc1C(=O)N2C [XMD8-85]; settings: top dose 8 µM; top dose inferred
Protocol: as §1

BMS-536924 = compound: Cc1cc(N2CCOCC2)cc2[nH]c(-c3c(NC[C@@H](O)c4cccc(Cl)c4)cc[nH]c3=O)nc12 [BMS-536924]
Protocol: as §1

Shikonin = compound: CC(C)=CC[C@@H](O)C1=CC(=O)c2c(O)ccc(O)c2C1=O [Shikonin]; settings: top dose 16 µM; top dose inferred
Protocol: as §1

CGP-082996 (CINK4) = compound: CCNc1cc(NC2CCC(O)CC2)nc(Nc2ccc3c(ccn3Cc3ccccc3)c2)n1 [CGP-082996 (CINK4)]; settings: top dose 5.12 µM; top dose inferred
Protocol: as §1

[1] = top dose 5 µM, screen: GDSC drug entry 1017, top dose inferred
[2] = top dose 10 µM, screen: GDSC drug entry 1495
[3] = top dose 4 µM, screen: GDSC drug entry 1091, top dose inferred
[4] = top dose 5.12 µM, screen: GDSC drug entry 62

| Cell Line | AUC (Olaparib; [1]) | IC50 (Olaparib; [1]) | AUC (Olaparib; [2]) | IC50 (Olaparib; [2]) | AUC (SB-525334) | IC50 (SB-525334) | AUC (VX-702) | IC50 (VX-702) | AUC (A-770041) | IC50 (A-770041) | AUC (Wee1 inhibitor 681640) | IC50 (Wee1 inhibitor 681640) | AUC (BIRB 0796) | IC50 (BIRB 0796) | AUC (XMD8-85) | IC50 (XMD8-85) | AUC (BMS-536924; [3]) | IC50 (BMS-536924; [3]) | AUC (BMS-536924; [4]) | IC50 (BMS-536924; [4]) | AUC (Shikonin) | IC50 (Shikonin) | AUC (CGP-082996 (CINK4)) | IC50 (CGP-082996 (CINK4)) |
| --- | --- | --- | --- | --- | --- | --- | --- | --- | --- | --- | --- | --- | --- | --- | --- | --- | --- | --- | --- | --- | --- | --- | --- | --- |
| LU-139 (small cell lung carcinoma, suspension) | 0.797 | 3.16 µM | 0.939 | > 10 µM | 0.721 | 6.44 µM | 0.524 | 0.148 µM | 0.976 | > 5.12 µM | 0.897 | > 2 µM | 0.979 | > 10 µM | 0.859 | > 8 µM | 0.972 | > 4 µM | 0.98 | > 5.12 µM | 0.669 | 3.4 µM | 0.924 | > 5.12 µM |
| LU-165 (small cell lung carcinoma, suspension) | 0.988 | > 5 µM | 0.98 | > 10 µM | 0.918 | > 20 µM | 0.988 | > 2 µM | 0.954 | > 5.12 µM | 0.985 | > 2 µM | 0.988 | > 10 µM | 0.988 | > 8 µM | 0.927 | > 4 µM | 0.899 | > 5.12 µM | 0.431 |  | 0.977 | > 5.12 µM |
| MC116 (B-cell lymphoma, suspension) | 0.998 | > 5 µM | 0.999 | > 10 µM | 0.996 | > 20 µM | 0.999 | > 2 µM | 0.803 | 1.73 µM | 0.999 | > 2 µM | 0.999 | > 10 µM | 0.935 | 6.01 µM | 0.999 | > 4 µM | 0.983 | > 5.12 µM | 0.612 | 1.86 µM | 0.903 | 3.09 µM |
| ME-1 (acute myeloid leukaemia, suspension) | 0.983 | > 5 µM | 0.95 | > 10 µM | 0.988 | > 20 µM | 0.984 | > 2 µM | 0.973 | > 5.12 µM | 0.982 | > 2 µM | 0.988 | > 10 µM | 0.844 | 6.36 µM | 0.987 | > 4 µM | 0.97 | > 5.12 µM | 0.599 | 1.91 µM | 0.983 | > 5.12 µM |
| MEG-01 (chronic myeloid leukaemia, suspension) | 0.975 | > 5 µM | 0.982 | > 10 µM | 0.871 | 17 µM | 0.947 | > 2 µM | 0.406 | 0.18 µM | 0.939 | > 2 µM | 0.968 | > 10 µM | 0.844 | 5.23 µM | 0.957 | > 4 µM | 0.879 | 4.71 µM | 0.356 | 0.411 µM | 0.883 | 4.91 µM |
| MFH-ino (soft tissue, adherent) | 0.853 | > 5 µM | 0.844 | 9.13 µM | 0.97 | > 20 µM | 0.953 | > 2 µM | 0.66 | 0.971 µM | 0.961 | > 2 µM | 0.97 | > 10 µM | 0.848 | 7.62 µM | 0.954 | > 4 µM | 0.508 | 0.338 µM | 0.482 | 0.886 µM | 0.938 | > 5.12 µM |
| MHH-NB-11 (neuroblastoma, adherent) | 0.981 | > 5 µM |  |  | 0.879 | > 20 µM | 0.959 | > 2 µM | 0.952 | > 5.12 µM | 0.941 | > 2 µM | 0.984 | > 10 µM | 0.882 | > 8 µM |  |  | 0.983 | > 5.12 µM | 0.598 | 1.91 µM | 0.964 | > 5.12 µM |
| MHH-PREB-1 (B-cell leukaemia, suspension) | 0.987 | > 5 µM | 0.963 | > 10 µM | 0.95 | > 20 µM | 0.98 | > 2 µM | 0.778 | 1.86 µM | 0.982 | > 2 µM | 0.987 | > 10 µM | 0.821 | 4.01 µM | 0.906 | > 4 µM | 0.862 | 3.66 µM | 0.373 | 0.466 µM | 0.849 | 3.25 µM |
| ML-2 (acute myeloid leukaemia, suspension) | 0.953 | > 5 µM | 0.877 | 8.11 µM | 0.99 | > 20 µM | 0.944 | > 2 µM | 0.929 | > 5.12 µM | 0.986 | > 2 µM | 0.99 | > 10 µM | 0.89 | 7.42 µM | 0.927 | > 4 µM | 0.41 | 0.187 µM | 0.443 | 0.71 µM | 0.964 | > 5.12 µM |
| MOLP-8 (myeloma, suspension) | 0.972 | > 5 µM | 0.958 | > 10 µM | 0.828 | 11.7 µM | 0.954 | > 2 µM | 0.956 | > 5.12 µM | 0.956 | > 2 µM | 0.97 | > 10 µM | 0.743 | 2.41 µM | 0.747 | 1.24 µM | 0.532 | 0.389 µM | 0.156 | 0.0922 µM | 0.945 | > 5.12 µM |
| MOLT-4 (lymphoblastic leukaemia, suspension) | 0.929 | > 5 µM | 0.904 | 8.89 µM | 0.976 | > 20 µM | 0.97 | > 2 µM | 0.914 | 5.06 µM | 0.948 | > 2 µM | 0.99 | > 10 µM | 0.962 | > 8 µM | 0.945 | > 4 µM | 0.891 | 4.03 µM | 0.373 | 0.481 µM | 0.992 | > 5.12 µM |
